# From the supplement of paper PMC11417369
# This is one part of the list.
# Test system: PfSIP2 AP2 domain 1 (GST-tagged)
# Assay: gcPBM binding intensity (ln(normalized median fluorescence intensity)); higher = stronger DNA binding
# Outline: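 Binding intensity values are the highest Masliner-normalised natural-log median intensity among replicate spots of either probe orientation. The binding step lasted 1 h in 1× PBS with 1% milk, 0.2 mg/ml BSA, 0.5% salmon testes DNA and 0.03% Triton X-100, using GST-tagged P. falciparum DNA-binding domains expressed in E. coli on an Agilent 4 × 180k array of primer-extended double-stranded 36-bp intergenic genomic probes plus negative controls. Alexa488 anti-GST antibody and a 488 nm scan detected bound protein.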
row,Sequence,gcPBM binding intensity (ln)
1,TATATTTTTTAAAAAGCATGCAAAAAATAATGATCA [TGCATGCA_site48],6.97
2,GTATAATATGAACACACACACACACGCAAAAAAAAA [CACACA_site7036],7.28
3,TAATATATATAAACATGTACAAATCAAAAACAAAAG [XGTACX_site4076],7.5
4,TCATTTTATTTTTTCACACACACATATATATATATA [CACACA_site3333],9.1
5,CTCTTATGCTAGGAAGTGCAATAGTATGGGTACCAC,7.79
6,TTGCCCATTTCATTAACACACAAATGTTTATATTCT [CACACA_site4569],7.22
7,TTAACTCAAGAGTGTACACATATATATATATATATA [CACACA_site4334],9.31
8,AATACCCATTTTAGTACACACTTAAAAAATTATTTT [CACACA_site5611],6.97
9,ATATAGTATTAATTTGCATGTCATGTATTAGGTCGA [TGCATGCA_site540],6.73
10,TATTCATTTATAAGCTGTACACATTAATTTGAGCTA [XGTACX_site3616],6.83
11,ATTAGGATATATTAAAGTACTAATATAATACATTTT [XGTACX_site7386],6.69
12,CTTTTTTTAATATGCACACATATATTTTATATATTA [CACACA_site2077],7.7
13,TGTAAGTTGATATAATGTACATGTTTGATTTTTTTT [XGTACX_site7687],6.97
14,TTTTATATTTTTTGTGGTACATTTAGAGAACCAAAA [XGTACX_site1695],7.04
15,AAAAAGGGTATTATTACACACACGTAAATATTAATA [CACACA_site101],6.91
16,AGATTTATACAAATATGTACACACTAAATATATATT [XGTACX_site864],7.21
17,TAACTAAGGAATAATACACACAGAAATATAGATTTA [CACACA_site6293],6.71
18,TCTATTTTCTTATGAATGCACTAATTTATAAAACGT,8.41
19,CAACAAAAATTATTTACACACAAAAGGCAAGGAAAT [CACACA_site1971],7.03
20,TTTATAAACAAATGAACACACAAACATATATATATA [CACACA_site5713],8.76
21,TTTATTTTATCATTTGCACACGCACCCAGACATAAA [CACACA_site4347],10.8
22,CTATTATAATATTTTACACACCATGTAAGATATATA [CACACA_site7492],6.9
23,TTTTTTCATTAGAAAACATGCAAATGTTTTTCACTT [TGCATGCA_site127],6.53

row,Sequence,gcPBM binding intensity (ln)
1,AAAGAAATAAGGTGCACACATATACAGATATATATA [CACACA_site4399],11.9
2,ATATATTTGATTTACACACTTACAATGTATATAAAT [CACACA_site2993],7.06
3,CTCTTTTTTTGCAAAAGTACAAATGGGGATATATTT [XGTACX_site5813],7.49
4,TTAAATAAAAAAATAACACACATATAAATATATATG [CACACA_site3175],6.79
5,TTACATATTTTTTAACGTACATAAATATATATGTAT [XGTACX_site8406],7.34
6,TTGTAAAAATTAATACATATATATATATATATATAT [CACACA_negctrl_site6],9.55
7,ACTCAAACCTTTAGAGTGCAAAAAAAAAAAAAAAAA [GTGCAC_site9952],9.22
8,ATAATTATCATAGGATGTACATATTTATTTTGTATA [XGTACX_site7797],7.06
9,ATATGTTAAATTATTCGTACGTAAAAAAAAATGGAT [XGTACX_site3465],7.22
10,GCATTATTTACCACAACACACAAATATTTACCAATC [CACACA_site2669],7.56
11,TAATTTCATCATATTTGTTCCTTCTCAAAATTTTTT [CACACA_negctrl_site217],7.01
12,ACTATATATTTAATATGTACACATATTTCTGTCGAT [XGTACX_site6878],7.28
13,TTCCTAAGAATAATCAGTACACATAAAAAGAACATA [XGTACX_site7861],7.17
14,ATATATATATATATATGTACATATTTTTAATTATAA [XGTACX_site7444],9.31
15,TTGTTTCTTAAATTATTTATTTTATATTAAAAAAAA [XGTACX_negctrl_site224],7.14
16,AAGAAAATGAAAAAGTAAAAACATATATTAAATATA [TGCATGCA_negctrl_site123],6.69
17,ATTCGTAGTTTTATGAATTAATATAATAAAAATTAA [XGTACX_negctrl_site181],6.71
18,TCGTAGTTACTATGGCAAGAAAATAAACGGTCTTGT [GTGCAC_negctrl_site684],6.8
19,ATAGAATAATATTGTAGTACTAAAAATATTCATTTT [XGTACX_site6447],6.93
20,TCTATATATAAATATAAATATATATATATAATGTTA [TGCATGCA_negctrl_site92],6.82
21,TAAAAAACAAAACAGGTGCTATATAATTTTCATTTT,7.5
22,ATTATAAATTAAAATACACACATATATACATAATAT [CACACA_site7337],6.97
23,TCTTTTTGTTCGTGTACACACATGAAATTTATAAAA [CACACA_site1619],7.51

row,Sequence,gcPBM binding intensity (ln)
1,AAGTATATACATATATGTACACATTGTCAGATAGAA [XGTACX_site1236],7.12
2,CATGTAATATTAAACACACACTCATATAACACAATA [CACACA_site65],6.95
3,AAAGAAAAAAAAAACACACACACACGCATTCAATAT [CACACA_site6169],6.87
4,ATATATATTTATATATATATATATATATATATGTAT [GTGCAC_negctrl_site220],8.18
5,TAGTTATTTATATACACACACATACAGACAAATAAA [CACACA_site7577],7.28
6,TCTTAGATTATTTATTGTACTTATGCTTAAAAAATT [XGTACX_site3639],7.23
7,GTCCAATAAGGAAGAGTGCAAAAATTAAATAATATA [GTGCAC_site9751],8.91
8,ATATTTTCTTTTTAAAGTACATATTTGATTACAATA [XGTACX_site8414],6.77
9,GAAAAAAAAGAAAAAACACACATATGATATATTTAT [CACACA_site1524],6.62
10,TGTATATATATATAAAGTACATATAATATATATTTG [XGTACX_site5411],6.98
11,AAATAAAATTATAACTGTACGTTGTATGAAATAATG [XGTACX_site5462],7.29
12,CTGTTTAAAATATAAACACACATTGTTTGCTTTAGA [CACACA_site1301],6.95
13,ATTTTTTTACTGCAACCATATTTTTCCCTTTTATTC [CACACA_negctrl_site1282],7.16
14,TCTATAAAGTTCCATACATGCGCCATCATTTATATT [TGCATGCA_site195],6.96
15,GAATACACCACGCACACACACTTGAGAAAAAATAAA [CACACA_site7747],7.57
16,ATTATAATTATTTTGTTGCACTATTTTTGTAGGCCA [GTGCAC_site9734],8.7
17,GTGTACATAGGTATAGCACACACAAATGTAGGTATT [CACACA_site9339],6.87
18,TTTATAAAAATATACACACATACAAATATGCATATA [CACACA_site712],6.87
19,GAAAAAAGGAAATAAAGAAAAAAAAAAATGAAATAT [XGTACX_negctrl_site318],6.73
20,GTCAAATTTTTGTGCACACATATATAGTTATTATTA [CACACA_site2241],10
21,TAATAATATATATGAAGTACAATAACTTTTTGTTTT [XGTACX_site292],6.89
22,TTTATATGTATTAAGTGTACACATATAATCTATCTT [XGTACX_site4922],6.93
23,TTTCTTTTCTCAGAAATTATTCAAATGAAAAAAAAT [TGCATGCA_negctrl_site44],6.74

row,Sequence,gcPBM binding intensity (ln)
1,AAAATACACGCATACACACACACACCCACCCATATA [CACACA_site639],7.14
2,AAAAAAAAAAAAAAAACACACACATACACCCAAAAA [CACACA_site7910],7.77
3,TTACATATGGTTAGTAGTACATATATAAATGTAAAT [XGTACX_site7206],7
4,GTATACACATATATATGTACTTAATTATTTTATGTC [XGTACX_site6707],7.15
5,CAAAGGGAAATTAACACACACATATATATATATATA [CACACA_site2453],9.24
6,AAACATGATTATTATAGTACAATTATAATTATTATA [XGTACX_site2590],6.95
7,GTCATAAAAACATATACACACTTGAAATATAAAAAT [CACACA_site5315],7.23
8,GAACTAATAATGAAAAGTACACATACACATATATAT [XGTACX_site6789],7.35
9,AAATGTATACACATGGTGCGTAATATATTATATATA [GTGCAC_site9877],9.09
10,CTACCAAATCTATAGACACACATATATATATATATT [CACACA_site2486],7.17
11,AAATACAAGGGACATGCATACCACTATTTTTTAAAT [TGCATGCA_site588],7.02
12,TTTATATAATAGTTATGTACTTAAACGAAAGATACA [XGTACX_site8495],6.99
13,AAAGATATTTTTATCTCACACATATAATATATATAT [CACACA_site5478],8.38
14,TAAAATTTAAGTTATACACACTTAAGTAACATCATC [CACACA_site6395],6.85
15,TATAGAAAATTTATATGTACATATATATATATATAT [XGTACX_site4451],9.78
16,GTTACTGCATACATAACACACATATTCAAAACACAT [CACACA_site3502],7.28
17,TATTTACAGACATGCGCACACATAAATAAATAATAG [CACACA_site2411],8.85
18,TAAGTTTGTCAATCAACACACACCTATTTATTATAT [CACACA_site3919],6.92
19,CACTTTAATTTATGCACACATATGGAACAACAGCCA [CACACA_site994],7.73
20,CTTAAAATGATAATATGTACACATAAATAATATATA [XGTACX_site8330],7.23
